# From the supplement of paper PMC11417369
# The list shows a part of the results.
# Tested on: PfAP2-HC AP2 domain (GST-tagged)
# Assay: gcPBM binding intensity (ln(normalized median fluorescence intensity)); higher = stronger DNA binding
# In short: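 Each value is the highest Masliner-normalised natural-log median intensity across replicate spots of either orientation of a probe. The probes were primer-extended double-stranded 36-bp intergenic genomic sequences on an Agilent 4 × 180k array, alongside negative controls, exposed for 1 h to GST-tagged P. falciparum DNA-binding domains expressed in E. coli. Bound protein was picked up with Alexa488 anti-GST antibody and scanned at 488 nm.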
row,Sequence,gcPBM binding intensity (ln)
1,ATTATCCATGCATTTACACACACACTAATAAAAATT [CACACA_site9358],10.3
2,TTTAACATAAATTAAACACACAATAAAATACATTAA [CACACA_site6699],9.75
3,CATAAATACAGATATACACACATATATATATATATA [CACACA_site4528],9.75
4,ATAATACATATAGAAGGTACACTATTATTTTCCTGA [XGTACX_site903],9.64
5,GAGGTACATTAATTAGTGCATTAAAATTTTTATCCT,9.49
6,TGTATTATTAATATTTGTACGTAATAATAAAAACAT [XGTACX_site3716],9.54
7,TGGAAACAAAAACACACACACAAAAAAAAAAAAAAA [CACACA_site3209],10.1
8,TCCTTAGAAATATTGATCATAAACTGGAAAGGTATA [XGTACX_negctrl_site354],9.28
9,GAAATATATAAATTGACACACACATATATACATATA [CACACA_site8323],10.1
10,TAATTTCTTATGTATTGTACAAATAATATATTATTT [XGTACX_site3066],9.84
11,ATTCAAAATAATCACAGTACACATGAGATTATCTTT [XGTACX_site2197],9.58
12,ACTTCATAAACATTTTGTACGTATGTATCTTTTTAT [XGTACX_site7012],9.95
13,TTAATATGGAAATGTTGTACATTTCTTGAAGCATTC [XGTACX_site525],9.39
14,TTATTGAAAAACATAATATCTAAGAGGGTAATATAT [GTGCAC_negctrl_site599],9.59
15,TAAAAGGGGATATATGAACACACAAAAAAAAAATAT [CACACA_site8940],9.94
16,TATATATATATGTACACACACACATATAAATAAATA [CACACA_site443],10.3
17,TTAAAAAAAAAAAAAAGTACATAAGTATATATAATA [XGTACX_site4295],9.7
18,CATATTTTTTCTTAAACACACACATATATATATATA [CACACA_site8920],9.92
19,ATATTAAGTTTTATTACACACTCTCAATTTTTATTT [CACACA_site4206],9.87
20,TAAATGTTTCTCAAAAGTACACATGTGATATTTCTT [XGTACX_site2065],9.65
21,TTAAAAATATTATGTACACACATTTTAGATATTTGT [CACACA_site1846],9.91
22,TAAATATATATATATTGTACAAAACAAATGTGAATT [XGTACX_site696],9.79

row,Sequence,gcPBM binding intensity (ln)
1,TCCTAATATTTGTCAAATTTCAAAATAAATAAAATG [XGTACX_negctrl_site540],9.27
2,TAATTAAAATCATATACACACCCATATATATATATA [CACACA_site8524],10
3,ATATAGTAAATGTTCACACATACAAATATATATATA [CACACA_site5518],9.73
4,AAGTTTTCTTAAAGCTGTACTTTTTAAAAATAAAAT [XGTACX_site7716],9.13
5,TACAAATATAGATGCACACACATATAGGTATATGTG [CACACA_site7439],10.4
6,TATATATAATTATAAGAACACACATATATATATATA [CACACA_site8786],9.8
7,AATGATACTTAGGGGCATGTCTCTGGGGGCATAACC [CACACA_negctrl_site591],9.53
8,ATATATTTCTGTCAAGCACACATAATATTAATATAT [CACACA_site7993],9.97
9,CATATTATATTTTCATGTACACATAACATATTTATA [XGTACX_site4787],9.69
10,GTTATAAACAAAATAAATATATGAATATATAATAAT [XGTACX_negctrl_site96],9.71
11,CACATACATATATACACACACAAAATAATAAAATAA [CACACA_site2308],10.4
12,AAAATTATATTTTATAGAAATTTAAATAAATATATA [GTGCAC_negctrl_site199],9.4
13,TTTTTAAAAATAACAGAAAAGAATTACAGATTTTTT [XGTACX_negctrl_site472],9.41
14,TTTTCTTGATTTTGTAGTACATTTTTACGATATTTT [XGTACX_site63],9.91
15,ATGTAAATTATTATTCTATTGTTATATACACAATAT [XGTACX_negctrl_site332],9.75
16,ATATAGTTCGTTTATACACACATGATAAGATATTTA [CACACA_site1947],9.69
17,AAATCACTTTTTAAGTGTACTTGGTCTTTCTCATTT [XGTACX_site7221],9.68
18,TTTTTTACATCCATAAAACTTTTTCTCTTTTAAAAT [CACACA_negctrl_site1745],9.43
19,AGAGAGAAAGGTATAACATGCGATAAATTTTAGAAG [TGCATGCA_site37],9.68
20,TGTATTAATATGGTAATACACACTAATATACTTTTG [CACACA_site1610],9.72
21,TGTAGAATTTCCTGAACATGCAAATAATTTTCCTTA [TGCATGCA_site881],9.42
22,AAAAAATTGAAGGAGTGTACATTTATACTTTATTTT [XGTACX_site8623],9.63

row,Sequence,gcPBM binding intensity (ln)
1,TGTTATTCGACATATACACACAAATAACAATTTAAA [CACACA_site5076],9.73
2,AACATAATAAAAATGGATATAATTCAAAGTTTGTAA [TGCATGCA_negctrl_site529],9.76
3,AGGTCTGTTTTATATTGTACATAAAAAGTGCACATG [XGTACX_site4529],9.63
4,TAATTATAAATTATAGTGCATAAAATTGTAGCATAA,9.65
5,AAAATATGATATGAAAAATTTGTTATATATACATAA [CACACA_negctrl_site1529],9.62
6,GACATTTGTGAGCTTGAGCCGTCAAACCACTAAATA [CACACA_negctrl_site552],9.33
7,CATATTCCAAGAATGTGTACATAATTTTTTTTTTTT [XGTACX_site4310],9.52
8,CTCATAATTTCTGAACGTACGTATTTCTCATTTTTA [XGTACX_site7296],9.69
9,TTCTATAAGTATAAATGTACAAAAAAAACATCATTC [XGTACX_site5450],9.68
10,ATAATTCTAAATAAATGTACACACAAAAATAAATGT [XGTACX_site3547],9.91
11,ATTGTATGCACGTCTGCACACTTTTTTTTTTTTTTT [CACACA_site2082],9.79
12,TAACGCATGAATATAATATATATATATATAAAAATA [GTGCAC_negctrl_site218],9.65
13,GTTAATTGAAGATTCACACATAAATATATATATAAT [CACACA_site5482],9.61
14,TATAGATGTATGTACATACACACATATATAAATAAA [CACACA_site1789],10
15,TGTTAATTTATATTATGTACTTATAATTATCGTTTG [XGTACX_site1032],9.74
16,AACTTTATACTTTTTTGTACTTAACCCTTACATTTT [XGTACX_site5798],10.3
17,TTTATATATTTATTCACACATATAATATTCCGTCGT [CACACA_site6120],9.66
18,AACATACATAAACACACACACACACCCACACCCACA [CACACA_site8058],10.8
19,TTTATGAAACAGTGCACACATAAAAATATATACATA [CACACA_site2992],9.79
20,TAGATAAATGGGTATACACACATATACATAAATATA [CACACA_site375],9.93
21,GTAAGATTTCTTGTTGCATGCGGTAAAAAGTAAAAT [TGCATGCA_site469],9.69
22,AAAAAGAAATATTTATGTACATAATAATAATATTTT [XGTACX_site4693],9.65

row,Sequence,gcPBM binding intensity (ln)
1,AATATAGATACATATACACACACACCCATACATATA [CACACA_site9137],10.6
2,CAATTAAATATATGAACACACATGTGAACTTTCTAT [CACACA_site3977],9.89
3,AAATACCTGATATATACACACTATGTTTTTCTTTTT [CACACA_site6680],10.1
4,TATTAAATTATATAGACACACATTATATATATATAT [CACACA_site4345],9.78
5,ATAATTATATAAATATATATAATATATATATGAAAA [XGTACX_negctrl_site357],9.5
6,AAAATGGGTTAGCACATACACACCAATATATTATAT [CACACA_site3082],9.99
7,AAGAAAAACATTACGTGTACCAAAAGGCCTGTCAAC [XGTACX_site267],9.94
8,GTAACAAATAAAATAACACACATGTCGAAATGTATG [CACACA_site2971],10.4
9,GAAATACATTTTAAAAAATAAGTAATTATAAAATAA [TGCATGCA_negctrl_site303],9.54
10,ATTCATCCAATAATGTGAATTATCATGATAAACTTA [TGCATGCA_negctrl_site406],9.52
11,TTTATAAATAAACACACACACATGTGAACATAAAAA [CACACA_site5110],10.5
12,GATACCTATAGACACACACACATACCTATATACATA [CACACA_site7586],10.9
13,ATCAAAATTGTCATTACACACCTTTATTTTTAGAAT [CACACA_site1813],9.76
14,ATTATTCTATATGAAACATGCATACATTTGTATTTT [TGCATGCA_site823],9.82
15,ATATATGTAAATGAATGTACATTATTTTATATATTA [XGTACX_site8460],9.81
16,TACAACTTAATATGTACACACAAATATATATATATA [CACACA_site5138],9.73
17,AAAATAATAAAAAACTGTACGAATTAAAAATTAACA [XGTACX_site8454],9.76
18,TCCAATAATTTATAAAAAAAAAAAGGGAAAATGTAT [TGCATGCA_negctrl_site492],9.37
19,TTGGATTTTTCCTATGAACACACGGGGTTACAATTA [CACACA_site449],9.54
20,TTAATATGAGAATAATGTACAAGAAAATATTACATA [XGTACX_site6609],9.59
21,ATATATTTATTATTAACATGCAATCATTATATATAA [TGCATGCA_site404],9.29
22,CTTTCATTTCTATCTACACACATATTTTTTCCAAGT [CACACA_site2972],10
